{
  "source": "paper PMC4336329",
  "about": "(PLoS ONE, 2015)",
  "note": "Out of some 310,000 compounds screened, about 2,200 (0.71%) showed an effect of 50% or more. The effect is printed as a negative number. The list shows a part of the results.",
  "data": [
    {"biological_target": "human ether-à-go-go-related gene (hERG) potassium channel (human, UniProt Q12809)", "sequence (Q12809 whole entry, looked up)": "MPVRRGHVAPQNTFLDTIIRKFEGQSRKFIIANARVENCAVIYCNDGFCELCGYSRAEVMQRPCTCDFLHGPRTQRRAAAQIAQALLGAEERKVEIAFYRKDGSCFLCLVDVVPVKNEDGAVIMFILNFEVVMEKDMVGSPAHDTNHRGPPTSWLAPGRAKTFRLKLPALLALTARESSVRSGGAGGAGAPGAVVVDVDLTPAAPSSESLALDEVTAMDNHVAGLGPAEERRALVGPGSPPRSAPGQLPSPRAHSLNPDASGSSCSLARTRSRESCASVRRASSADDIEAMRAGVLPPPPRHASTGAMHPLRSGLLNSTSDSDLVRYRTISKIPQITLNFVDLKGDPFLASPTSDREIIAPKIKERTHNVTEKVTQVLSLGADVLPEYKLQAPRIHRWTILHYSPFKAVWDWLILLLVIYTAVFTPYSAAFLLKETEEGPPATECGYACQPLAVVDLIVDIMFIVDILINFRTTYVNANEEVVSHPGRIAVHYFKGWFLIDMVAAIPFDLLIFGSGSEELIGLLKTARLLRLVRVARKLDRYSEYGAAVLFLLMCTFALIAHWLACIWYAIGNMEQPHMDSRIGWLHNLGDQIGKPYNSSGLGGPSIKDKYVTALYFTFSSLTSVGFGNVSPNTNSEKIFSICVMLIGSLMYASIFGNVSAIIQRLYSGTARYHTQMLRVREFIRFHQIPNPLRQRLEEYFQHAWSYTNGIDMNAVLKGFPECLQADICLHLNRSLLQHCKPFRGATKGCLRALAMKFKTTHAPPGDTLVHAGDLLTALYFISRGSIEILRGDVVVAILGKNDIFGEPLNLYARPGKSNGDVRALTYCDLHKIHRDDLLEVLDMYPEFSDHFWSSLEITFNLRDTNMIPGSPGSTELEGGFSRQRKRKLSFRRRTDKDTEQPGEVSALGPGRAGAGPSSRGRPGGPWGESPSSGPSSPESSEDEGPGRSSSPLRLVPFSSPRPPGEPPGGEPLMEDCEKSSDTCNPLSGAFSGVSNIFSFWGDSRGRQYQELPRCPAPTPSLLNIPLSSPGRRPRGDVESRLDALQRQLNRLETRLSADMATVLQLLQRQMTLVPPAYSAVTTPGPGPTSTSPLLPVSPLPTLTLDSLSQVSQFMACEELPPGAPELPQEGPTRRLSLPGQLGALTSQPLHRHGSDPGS", "test": "primary screen, population patch clamp on CHO cells stably expressing hERG", "units": {"hERG current change (%, negative = inhibition) at 1uM": "%"}, "values": [
      {"molecule": "O=C(CN(Cc1ccco1)C(=O)c1cccc(F)c1)Nc1ccccc1C(F)(F)F", "hERG current change (%, negative = inhibition) at 1uM": 3.39},
      {"molecule": "CC(=O)Nc1ccc(S(=O)(=O)Oc2ccc(C(=S)N3CCCCC3)cc2)cc1", "hERG current change (%, negative = inhibition) at 1uM": 6.99},
      {"molecule": "Cc1nnc(N(Cc2ccco2)C(=O)c2ccc(C#N)cc2)s1", "hERG current change (%, negative = inhibition) at 1uM": 0.524},
      {"molecule": "CC(C)CC(=O)CC1(O)C(=O)Nc2ccccc21", "note": "(centres unmarked)", "hERG current change (%, negative = inhibition) at 1uM": 17.7},
      {"molecule": "C=CCOc1ccc(/C(O)=C2/C(=O)C(=O)N(CCCN3CCOCC3)C2c2ccc(OC)cc2)cc1", "note": "(centres unmarked)", "hERG current change (%, negative = inhibition) at 1uM": 9.31},
      {"molecule": "CCOc1ccccc1NC(=O)c1ccc2c(c1)C(=O)N(CC)C2=O", "hERG current change (%, negative = inhibition) at 1uM": 11.7},
      {"molecule": "COC(=O)n1c(=S)oc2cc(Cl)ccc21", "hERG current change (%, negative = inhibition) at 1uM": 6.84},
      {"molecule": "CCOC(=O)c1c(NC(=O)C2c3ccccc3Oc3ccccc32)sc(C(N)=O)c1C", "hERG current change (%, negative = inhibition) at 1uM": 7.92},
      {"molecule": "CCOC(=O)c1nnn(-c2nonc2NC(C)=O)c1C", "hERG current change (%, negative = inhibition) at 1uM": 6.57},
      {"molecule": "Cc1nn(CCC(=O)NCCc2ccccc2Cl)c(=O)c2nn(-c3ccccc3)c(C)c12", "hERG current change (%, negative = inhibition) at 1uM": 15.7},
      {"molecule": "COc1ccc(-c2nnc(SCC(=O)c3[nH]c(C)c(C(C)=O)c3C)o2)cc1", "hERG current change (%, negative = inhibition) at 1uM": 1.98},
      {"molecule": "Oc1cccc(C(=S)N2CCC(Cc3ccccc3)CC2)c1", "hERG current change (%, negative = inhibition) at 1uM": 14},
      {"molecule": "COc1cccc(NC(=S)NN2C(C)CCCC2C)c1", "note": "(centres unmarked)", "hERG current change (%, negative = inhibition) at 1uM": 5.92},
      {"molecule": "O=C(Nc1nnc(SCC(=O)N2CCCC2)s1)C1CC(=O)N(c2ccccc2)C1", "note": "(centres unmarked)", "hERG current change (%, negative = inhibition) at 1uM": 14.9},
      {"molecule": "Cc1cnccc1NC(=O)c1cccs1", "hERG current change (%, negative = inhibition) at 1uM": 5.06},
      {"molecule": "CC(C)(C)CC(=O)Nc1nnc(-c2cccs2)s1", "hERG current change (%, negative = inhibition) at 1uM": 6.56},
      {"molecule": "Cc1cccc(NS(=O)(=O)c2cccc(C(=O)N3CCCCCC3)c2)c1", "hERG current change (%, negative = inhibition) at 1uM": 11.8},
      {"molecule": "CN(CC(=O)Nc1cccc(F)c1)C(=O)c1cccc(S(=O)(=O)N2CCN(c3ccccc3)CC2)c1", "hERG current change (%, negative = inhibition) at 1uM": -2.88},
      {"molecule": "COC(=O)c1ccccc1NC(=O)N1CCN(Cc2ccco2)CC1", "hERG current change (%, negative = inhibition) at 1uM": 13.4},
      {"molecule": "O=C(CCc1nnc2ccc(NCc3ccco3)nn12)Nc1ccccc1F", "hERG current change (%, negative = inhibition) at 1uM": 10.6},
      {"molecule": "Cc1csc(NC(=O)CSc2nc(C)nc3c2c(=O)n(C)c(=O)n3C)n1", "hERG current change (%, negative = inhibition) at 1uM": 3.97},
      {"molecule": "CCN(C(=O)Cc1c(C(=O)O)n(CC)c2ccccc12)c1ccccc1C", "hERG current change (%, negative = inhibition) at 1uM": 14.7},
      {"molecule": "COc1cc(NC(=O)NCC2CCN(Cc3ccccc3F)CC2)cc(OC)c1", "hERG current change (%, negative = inhibition) at 1uM": 9.58},
      {"molecule": "O=C(c1ccccc1)N1CCN2C(=O)c3ccccc3C12c1ccc(Cl)cc1", "note": "(centres unmarked)", "hERG current change (%, negative = inhibition) at 1uM": 8.41},
      {"molecule": "CC(C)Cc1nnc(NC(=O)C2CSC3(C)CCC(=O)N23)s1", "note": "(centres unmarked)", "hERG current change (%, negative = inhibition) at 1uM": 4.72},
      {"molecule": "CC(C)c1c(C(=O)N/N=C/c2ccccc2C(=O)O)nnn1-c1nonc1N", "hERG current change (%, negative = inhibition) at 1uM": 7.36},
      {"molecule": "O=C(Nc1cccnc1Cl)c1cc(-c2ccc(F)cc2)on1", "hERG current change (%, negative = inhibition) at 1uM": 10},
      {"molecule": "COC(=O)c1c(NC(=O)CCNCc2ccco2)sc2c1CCC2.O=C(O)C(=O)O", "hERG current change (%, negative = inhibition) at 1uM": 2.08},
      {"molecule": "NC(=O)c1sc2nc3c(c(-c4ccco4)c2c1N)CCCC3", "hERG current change (%, negative = inhibition) at 1uM": 8.13},
      {"molecule": "CC12CS(=O)(=O)CC1SC(=S)N2c1ccccn1", "note": "(centres unmarked)", "hERG current change (%, negative = inhibition) at 1uM": 9.88},
      {"molecule": "CCN1CCN(C(=O)c2[nH]c3ccc(OC)cc3c2C)CC1", "hERG current change (%, negative = inhibition) at 1uM": 4.51},
      {"molecule": "CCN(CC)CCCNC(=O)CCc1c(C)n(CC)c2cc(-c3ccccc3OC)nn2c1=O", "hERG current change (%, negative = inhibition) at 1uM": 21.1},
      {"molecule": "CC1=[N+]([O-])C(C)(C)C(c2ccc(Br)cc2)=[N+]1[O-]", "hERG current change (%, negative = inhibition) at 1uM": 3.36},
      {"molecule": "C=CCNC(=O)c1c(CSc2ccccc2)noc1C(=O)NCc1ccccc1", "hERG current change (%, negative = inhibition) at 1uM": 17.7},
      {"molecule": "O=C(NCc1cccs1)C1CCC(=O)N(Cc2cccc(C(F)(F)F)c2)C1", "note": "(centres unmarked)", "hERG current change (%, negative = inhibition) at 1uM": 12.4},
      {"molecule": "CCOCCCN(C(=O)c1snc(C(N)=O)c1N)C(C(=O)NC1CCCC1)c1ccc(O)c(OC)c1", "note": "(centres unmarked)", "hERG current change (%, negative = inhibition) at 1uM": 11},
      {"molecule": "CC(=O)Oc1ccccc1C(=O)NC(C)CCc1ccccc1", "note": "(centres unmarked)", "hERG current change (%, negative = inhibition) at 1uM": 4.41},
      {"molecule": "COc1cc(CC(=O)OCC(=O)Nc2cc([N+](=O)[O-])ccc2F)cc(OC)c1OC", "hERG current change (%, negative = inhibition) at 1uM": -7.7},
      {"molecule": "Nc1ncnc2c1nc(N1CCCCC1)n2[C@@H]1O[C@H](CO)[C@@H](O)[C@H]1O", "hERG current change (%, negative = inhibition) at 1uM": 4.36},
      {"molecule": "COc1ccc(S(=O)(=O)N2CCC(C(=O)N[C@@H](C)C(=O)NC3CC3)CC2)cc1", "hERG current change (%, negative = inhibition) at 1uM": 15.4},
      {"molecule": "CO[C@H]1C=C2CCN(C)[C@H]2C2c3cc4c(cc3C(=O)O[C@@H]21)OCO4.O=[N+]([O-])O", "note": "(some centres unmarked)", "hERG current change (%, negative = inhibition) at 1uM": 10.5},
      {"molecule": "NC(=O)N/N=C/c1ccc(-n2nncc2-c2ccc(Cl)cc2)cc1", "hERG current change (%, negative = inhibition) at 1uM": 5.68},
      {"molecule": "CC1=NNC(=O)C1CCC(=O)N/N=C\\c1ccccc1[N+](=O)[O-]", "note": "(centres unmarked)", "hERG current change (%, negative = inhibition) at 1uM": 3.25},
      {"molecule": "CCCN(CCC)c1nc2ccccc2n2c(C)nnc12", "hERG current change (%, negative = inhibition) at 1uM": 11.6}
    ]}
  ]
}
